From PMC12136788 come the findings set out here.

T1: UNK ZnF1-6 (called full-length) (human, UniProt Q9C0B0 30-357)
T1 sequence: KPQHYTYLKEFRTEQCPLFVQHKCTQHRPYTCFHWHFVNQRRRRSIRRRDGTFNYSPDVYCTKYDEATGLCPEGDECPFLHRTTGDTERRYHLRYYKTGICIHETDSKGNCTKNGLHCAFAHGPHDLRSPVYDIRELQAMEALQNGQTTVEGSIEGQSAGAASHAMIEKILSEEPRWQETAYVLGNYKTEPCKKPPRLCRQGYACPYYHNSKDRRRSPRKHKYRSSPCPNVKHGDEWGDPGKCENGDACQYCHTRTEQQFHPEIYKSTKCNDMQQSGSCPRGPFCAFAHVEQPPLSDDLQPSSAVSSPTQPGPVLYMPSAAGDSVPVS

B1: chrX:106032434:106033499:-|three_prime_utr|ENSG00000123561|control|control|control (ssRNA)
RNA: GGGAGUUCUACAGUCCGACGAUCGGAAAAAGGCCAUUGGCUAAUUGCACGUGUGUAUUGCAAUGGGAAAUAAAUAAAUAAUAUAGCCUGGUGUGAUUGAUGUGAGCUUGGACUUGCAUUCCCUUAUGAUGGGAUGAAGAUUGACAACAGAGGAUUGAGCAUCA
B2: chr1:202892395:202892497:-|3pUTR|ENSG00000117153|unk|FALSE|unique (ssRNA)
RNA: GGGAGUUCUACAGUCCGACGAUCGCGAGAAGUGACCAUUGUUGGAGCACCAUCCAGAGCUAGUGACCAGUCCAGUGGACAGUUAGUGGGAGAAUCAAAAAUCCUUUCCAGAAUGUCUGUUUCUCACUAUGUGCACCGGGUGAUCAACAGAGGAUUGAGCAUCA
B3: chr5:91374913:91375023:-|CDS|ENSG00000113369|unk|total|mutant (ssRNA)
RNA: GGGAGUUCUACAGUCCGACGAUCGAGACGUGGAAUGGCAAGUUGCUGAAAAUUCCACCAGUUUCUCCCUCUAUCCUCGACUGCCGUAUAAUCCGCGUGGAAUAUUCACUAAUGGUAUGUACACAUUUAAGAGGUUUUUUCCUUCAACAGAGGAUUGAGCAUCA
B4: chr4:81602736:81602922:-|CDS|ENSG00000138670|control|control|control (ssRNA)
RNA: GGGAGUUCUACAGUCCGACGAUCUUCCAUGUACAGCAGCAUAACUCCAGUUUGCUUUCCAAGCCCUCUGAUUGAGAAGCCAAUAGGCAAAGUAAGAAUGAACCUACUUUUAUCAGACACUAUGAUUCGAGCCAGUUGGCUGUUCAACAGAGGAUUGAGCAUCA
B5: chr17:30248266:30248367:-|3pUTR|ENSG00000108578|msi1|FALSE|unique (ssRNA)
RNA: GGGAGUUCUACAGUCCGACGAUCUUGGGUGAGAACAACCAAAAUCUUAUCAUGGUCUCAGUCAUAAUCAUUAGGGGGAACUCUAGCCAAAUGGUUUAACUUCUGCCUGUGGAACUGGGGAUUGGGUGGGCAGGAAAAGGUGAUCAACAGAGGAUUGAGCAUCA
B6: chr12:95077336:95077437:-|3pUTR|ENSG00000180263|msi1|FALSE|unique (ssRNA)
RNA: GGGAGUUCUACAGUCCGACGAUCUCCUCAUUGACCCAUCCGCAUCUCUGUUUAUCCAAGACUUCUCUGUGAUAGCUGACCCUUAGUCUUUCUCUCCCCUAUUCCUCCAGACUAGAUCCUGUCUCCUUCCUGCAGCCCCGACACCAACAGAGGAUUGAGCAUCA
B7: ENSG00000070961:be:win_2701|CDS|ENSG00000070961|bound_else_gene|NA|bound_elsewhere_windowed (ssRNA)
RNA: GGGAGUUCUACAGUCCGACGAUCGCUCUGGCAACGGAACCACCCACUGAGUCUCUCUUGCUUCGGAAACCUUAUGGUAGAAAUAAGCCUCUCAUCUCACGUACAAUGAUGAAGAAUAUUUUGGGUCAUGCAUUCUAUCAACUUCAACAGAGGAUUGAGCAUCA
B8: ENSG00000107863:be:win_4901|CDS|ENSG00000107863|bound_else_gene|NA|bound_elsewhere_windowed (ssRNA)
RNA: GGGAGUUCUACAGUCCGACGAUCAAACCGACAGCGAGAGCGAGUUUCCCGUGUUCCCCACAGCCUUGACUUCAGAGAGGCUUUUCCGAGGAAAACUGCAAGAAGUGACUAAGAGCAGCCGGAGAAAUUCUGAAGGAAGUGAAUCAACAGAGGAUUGAGCAUCA
B9: ENSG00000198589:be:win_6001|CDS|ENSG00000198589|bound_else_gene|NA|bound_elsewhere_windowed (ssRNA)
RNA: GGGAGUUCUACAGUCCGACGAUCGGAUCGACACAUCCUGAAGCGACACUAAAAACAGCCGUGGAACAUGCCACAGAUGAAGAUAUCCUUGCUAAAGGAAAACAGUCCAUCAGGAGUCAGGCUUUAGGAAAUCAGAACUCAGAACAACAGAGGAUUGAGCAUCA
B10: chr2:171482635:171482736:+|3pUTR|ENSG00000115827|unk|total|mutant (ssRNA)
RNA: GGGAGUUCUACAGUCCGACGAUCCAAGAGUGUUUCAGAACCGGAUGUCUUAAGACUUCAGUCAUGUCAGAGAUUUUUUUUUUCCGGUGAUUAUUGAGUUUCUCCUUCUCCUUUAAGUCAUCACCUUCCUUUUAUGAAAUGAUACAACAGAGGAUUGAGCAUCA
B11: chr3:44491765:44499181:-|three_prime_utr|ENSG00000178917|control|control|control (ssRNA)
RNA: GGGAGUUCUACAGUCCGACGAUCACUAAUCACAGUGGAGACCAUACCUACUUGCUUUUCCUUGGGUCACUAAGGUGGGAGAGUAGGUGCAACUUAGUCUGAUCCUUACUUAGUAGGAAAUUGGGGAUUACAUCUGUCAUUAACCAACAGAGGAUUGAGCAUCA
B12: chr14:71589133:71589262:+|CDS|ENSG00000197555|unk|total|mutant (ssRNA)
RNA: GGGAGUUCUACAGUCCGACGAUCGAGACCGGUGGAGAAGGGGAGAGGAAAAUCAGCCUUUCAAAAUCAAAUUCUGGCUCCUUCCGUGGAUGUGAAAGUGCCUCCUUUGAGUCUACCCUCCGUUCCCAUUGCACAAAUGCAGGACAACAGAGGAUUGAGCAUCA
B13: ENSG00000107863:be:win_2101|CDS|ENSG00000107863|bound_else_gene|NA|bound_elsewhere_windowed (ssRNA)
RNA: GGGAGUUCUACAGUCCGACGAUCGGUACUUCAGAUUUAGAACUACCUGUCAGUCAAAGGAAUCAAGAUUUAAGUUUACAAGAGGCUGAAACUGAGCAAUCAGAUACUUUAGAUAAUAAAGAAGCUGUCAUCCUAAGGGAAAAACAACAGAGGAUUGAGCAUCA
B14: ENSG00000136451:be:win_2651|3pUTR|ENSG00000136451|bound_else_gene|NA|bound_elsewhere_windowed (ssRNA)
RNA: GGGAGUUCUACAGUCCGACGAUCUUUAAAUUUCUCCUUCCGUUUCUUAAGUAUUGCGCAGAUUUGUUCAACUUUGUAAAUAUGGACAUCACUUUUUUUUUCUUUGAGAAAACACUUGUAUCAGCUUUGUGGUGUUUUCAGGGACAACAGAGGAUUGAGCAUCA
B15: ENSG00000136451:be:win_2351|3pUTR|ENSG00000136451|bound_else_gene|NA|bound_elsewhere_windowed (ssRNA)
RNA: GGGAGUUCUACAGUCCGACGAUCGAAGUCAAGUGUGUGGACAGGCAAGCUCCUAAUAAACAGAGUCCAGUGGGAUUCCUAUUUAGGAGCCAAGGAGUACUUUGGAACAGUACAAAUAUAUUGCUUUAAAUUGGAAGACGCUGGCAACAGAGGAUUGAGCAUCA
B16: chr1:162783069:162783171:+|3pUTR|ENSG00000162733|unk|total|mutant (ssRNA)
RNA: GGGAGUUCUACAGUCCGACGAUCUGAAAGCCGUUCAAAUUUGAAUCCGAAGAAUGAAGCCCGGACUUAUUUGGAAAAGGAGACCGAAAAAAAAUGAUCAGAAACUGUGGGGCCUUAUUACCUUUGCAGUAAGUUAUCUUCUUCCAACAGAGGAUUGAGCAUCA
B17: chr12:125025615:125025697:+|3pUTR|ENSG00000184992|msi1_unk|total|mutant (ssRNA)
RNA: GGGAGUUCUACAGUCCGACGAUCGGACACAUUCCCAGAAGAGCGGAAAGAUCAUUGACGUGGAACUACACACGAAGUGUAAUCCGUGGGGGAAAAAAUAUUUUUUAAACAAAGGAUAUAACCAUAUUCCGUUGUACAGUAAGACAACAGAGGAUUGAGCAUCA
B18: chr17:34942483:34942643:-|CDS|ENSG00000132141|control|control|control (ssRNA)
RNA: GGGAGUUCUACAGUCCGACGAUCGAAAGAGAAAUUGGUAAAAGCUGAAAGAAAAUUUAUUGAAGAUAGAGUACAAAAAAUAAUAGACCUGAAGGACAAAGUCUGUGCUCAGUCAAAUAAAGGAUUUGUCGUCAUUAAUCAAAACAACAGAGGAUUGAGCAUCA
B19: chr11:126202095:126203417:-|three_prime_utr|ENSG00000165526|control|control|control (ssRNA)
RNA: GGGAGUUCUACAGUCCGACGAUCAAGGUAAAGCAACUCAGCUGCUACAGGGCUUUUAAUGGAGAACAAAGUCUAUUUACUGAUAGUUUGGCUGCACUGUGGAAAAGCCUGCUGGAAGUCUCCCUGCCGUGGGCUCUCAUUGCCCAACAGAGGAUUGAGCAUCA
B20: chr7:56058368:56058516:+|CDS|ENSG00000146731|unk|FALSE|unique (ssRNA)
RNA: GGGAGUUCUACAGUCCGACGAUCUACAAGAGUGCAGAAGAGAGAGAAAAACUCGUGAAAGCUGAAAGAAAAUUCAUUGAAGAUAGGGUUAAAAAAAUAAUAGAACUGAAAAGGAAAGUCUGUGGCGAUUCAGAUAAAGGAUUUCAACAGAGGAUUGAGCAUCA
B21: chr8:17969608:17969733:+|CDS|ENSG00000078674|unk|FALSE|unique (ssRNA)
RNA: GGGAGUUCUACAGUCCGACGAUCUUCUAAUUUUGGAGAUUUUUCUCAGAAUAUCUCUACACCCAGUGAACAGCAGCAACCCUUAGCCCAGAAUUCUUCAGGAAAAACAGAAUAUAUGGCUUUUCCAAAACCUUUUGAAAGCAGCAACAGAGGAUUGAGCAUCA
B22: chr5:136988535:136988636:-|CDS|ENSG00000152377|msi1|total|mutant (ssRNA)
RNA: GGGAGUUCUACAGUCCGACGAUCGGAAAGCAUCAGGCUUGGUGGCAGCUGAGAUAUGCCUUUUGUUUGGCAGGGUUUGACACCCGCAUCCUGCCCAUCUGCAAGGACUCCCUGGGCUGGAUGUUCAACAAGUUGGACAUGAACCAACAGAGGAUUGAGCAUCA

The other results are listed elsewhere or left out.

The assay addresses T1, UNK ZnF1-6 (called full-length). Put plainly: nsRBNS (natural sequence RNA bind-n-seq); RBNS binding buffer (assumed for nsRBNS): 25 mM Tris pH 7.5, 150 mM KCl, 3 mM MgCl2, 0.01% Triton X-100, 500 ug/ml BSA, 20 U/ml SUPERase-In, 4 C; UNK is unkempt and MSI1 is Musashi-1; names of the RNAs are library labels; protein concentration not given here; high values mean tight binding.
Molecule B1 registered a binding signal of 0.545 enrichment R.
To B2 belongs 0.479 enrichment R.
To B3 belongs 0.371 enrichment R; to B4, 0.386 enrichment R; to B5, 0.967 enrichment R.
To B6 belongs 1.21 enrichment R.
B7 gave a binding signal of 0.673 enrichment R.
For B8, the binding signal amounted to 0.536 enrichment R.
The molecule B9 returned a binding signal of 0.428 enrichment R.
To B10 belongs 0.63 enrichment R; to B11, 0.752 enrichment R; to B12, 0.626 enrichment R.
Molecule B13 registered a binding signal of 0.795 enrichment R.
To B14 belongs 0.554 enrichment R; to B15, 0.653 enrichment R; to B16, 0.349 enrichment R.
To B17 belongs 0.553 enrichment R; to B18, 0.9 enrichment R; to B19, 0.627 enrichment R.
The same measure for B20: 1.17 enrichment R.
For B21, the binding signal worked out at 0.522 enrichment R.
In turn, B22 returned a binding signal of 0.913 enrichment R.
